Data published in PubChem BioAssay AID1745845 (National Center for Advancing Translational Sciences (NCATS), 2022).
Values joined by “and” are separate entries in the source; they are usually repeats but may differ in a detail not shown here. Equal values may be shown once. About 2,600 (0.72%) of roughly 360,000 compounds were called active. The shares of active, inactive and inconclusive entries below differ from those in the screen. The call rests on the fitted dose curve; in most records, active means well fitted inhibition curve with a large enough effect; inconclusive means small, poorly fitted or top-dose-only effect; inactive means no such curve, though single readings can be large or run the other way. Where the call is inconclusive, the potency comes from a doubtful curve fit.

Assay: Primary qHTS for Inhibitors of ATXN expression; further: nearly all actives have a fitted effect of over 55% in size
Details: HEK-293 ATXN2-luciferase reporter, luminescence, 24 h; activity change, negative = inhibition: at 57 µM (top of the series)
In short: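 qHTS (up to 57 uM final) was run with 24 h compound exposure of reporter cells at 37 °C. Each well was multiplexed: SteadyGlo luminescence measured ATXN2-luciferase expression after a fluorogenic Gly-Phe-AFC viability readout (25 uM final).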
On the % scale 0 is the no-effect control and ±100 the full control effect; potency means the concentration at half of the fitted maximal effect; tags describe the fitted curve by direction and shape.

**Q.** Which Potency does the source give for `O=C(Nc1ccc(Cl)c(S(=O)(=O)N2CCOCC2)c1)c1ccc(Cl)nc1` here?
**A.** inconclusive: 39.8 µM [inhibitor, single point]

**Q.** For `COc1ccc2[nH]c(C)c(CCN(Cc3cccs3)C(=S)Nc3cccc(F)c3)c2c1`, which Potency is on record?
**A.** inconclusive: 39.8 µM [inhibitor, single point]

**Q.** Which Potency does the source give for `CCN(CC)CCn1c(-c2ccccc2)csc1=Nc1ccccc1` here?
**A.** inconclusive: 28.2 µM [inhibitor, single point]

**Q.** With `CCc1ccc(-c2nc(CS(=O)CC(=O)NCCCN3CCC(C)CC3)c(C)o2)cc1` (centres undefined) as the molecule, how does the “activity change, negative = inhibition” value read?
**A.** inactive: 0.476%

**Q.** With `O=C(COC(=O)c1ccccc1NS(=O)(=O)c1cccs1)NCC12CC3CC(CC(C3)C1)C2` as the molecule, how does the “activity change, negative = inhibition” value read?
**A.** inactive: 0.555%

**Q.** Which “activity change, negative = inhibition” value does the source give for `COc1ccc(S(=O)(=O)N2CCC3(CC2)CC(=O)c2ccccc2O3)cc1OC` here?
**A.** inactive: -15.9%

**Q.** Which “activity change, negative = inhibition” value does the source give for `Cc1nc(/N=C\N(C)C)sc1C(=O)Nc1ccccc1` here?
**A.** inactive: 43.6%

**Q.** Which “activity change, negative = inhibition” value does the source give for `COc1ccc(C2CC3(CC(C)(C)NC(=S)N3)Oc3cc(O)cc(C)c32)cc1` (centres undefined) here?
**A.** inactive: -4.71%

**Q.** Which Potency does the source give for `O=C(NOCC1CC1)c1ccc(F)c(F)c1Nc1ccc(I)cc1Cl` here?
**A.** active: 28.2 µM and active: 30.6 µM

**Q.** Which Potency does the source give for `Cc1cc(C)nc(N2CCC(C(=O)Nc3ccc4c(c3)CCC4)CC2)n1` here?
**A.** inconclusive: 35.5 µM [inhibitor, partial curve, poor fit]

**Q.** With `C=CCN1C(=O)/C(=C/c2ccc(OC(C)=O)c(OCC)c2[N+](=O)[O-])SC1=S` as the molecule, how does the Potency read?
**A.** inconclusive: 17.8 µM [inhibitor, partial curve, poor fit]

**Q.** Which Potency does the source give for `CCOc1ccccc1NC(=O)c1c(NCc2cccs2)sc2c1CCCCC2` here?
**A.** inconclusive: 39.8 µM [inhibitor, single point]

**Q.** With `O=C(NCC1CCCO1)c1cc2c([nH]c3ccccc32)c(-c2cccc(Cl)c2)n1` (centres undefined) as the molecule, how does the Potency read?
**A.** inconclusive: 28.2 µM [inhibitor, single point]

**Q.** With `COc1ccc(-c2csc(CCn3nc(C)cc3C)n2)cc1` as the molecule, how does the “activity change, negative = inhibition” value read?
**A.** inactive: 1.65%

**Q.** With `CCc1ccc(-c2nn(CC(=O)NCc3ccccc3)c3c2cnc2ccc(C)cc23)cc1` as the molecule, how does the “activity change, negative = inhibition” value read?
**A.** inactive: 8.15%

**Q.** Which Potency does the source give for `O=S(=O)(c1ccc(Cl)cc1)N1CCC(n2cnc3cc(C(F)(F)F)ccc32)CC1` here?
**A.** inconclusive: 28.2 µM [inhibitor, partial curve, poor fit]

**Q.** Which Potency does the source give for `COc1ccc2[nH]c(C)c(CCNC(=S)Nc3ccccc3C)c2c1` here?
**A.** inconclusive: 39.8 µM [inhibitor, single point]

**Q.** With `CCCN(C(=O)COc1cc(=O)n(CC)c2ccccc12)c1ccc(C(C)C)cc1` as the molecule, how does the Potency read?
**A.** inconclusive: 39.8 µM [inhibitor, single point]

**Q.** For `COc1ccc([N+](=O)[O-])cc1NC(=O)c1cccnc1`, which Potency is on record?
**A.** inconclusive: 14.1 µM [inhibitor, partial curve, poor fit]
